These results are taken from PubChem BioAssay AID292 (DTP/NCI, 2004).

This assay has as its system B6C3F1 mice, ip Sarcoma M5076, median survival T/C. The assay is described as follows: NCI In Vivo Anticancer Drug Screen. Data for tumor model Sarcoma M5076 (intraperitoneal) in B6C3F1 mice. Particulars: endpoint: median survival time, schedule: Q04DX004 (ip), higher = longer survival. Here is the method:
The antitumor activity of compounds was measured in mice bearing transplantable tumors. Survival or tumor size were measured and the results are expressed as the measurement made in the treated group (T) divided by the measurement made in the vehicle treated control group (C). The tumor model used in this assay is Sarcoma M5076 (intraperitoneal) in B6C3F1 mice

[1] abbreviates: dose: 1.25 mg/kg/injection, vehicle: Klucel (hydroxypropylcellulose) (HPC).

Molecules are shown by their SMILES. Inconclusive results and toxic doses are left out. A number of entries come with more than one value. This is not the full list of results. The source may hold further records. The values listed for one entry are repeated measurements in other runs, samples, wells, individuals or studies.

Take `O=C1N[C@@H]2C(=C[C@H](O)[C@@H](O)[C@H]2O)c2cc3c(c(O)c21)OCO3`: the T/C (dose: 6.0 mg/kg/injection, vehicle: saline with Tween-80) is recorded as 116 % of control, 159 % of control, 160 % of control.
With `CN(C)N=Nc1ccc(C(=O)O)cc1`, where the note is “dose: 200.0 mg/kg/injection, vehicle: saline”, the T/C is given as 94 % of control, 196 % of control, 200 % of control.
`CCOC(=O)NC1CCc2cc(OC)c(OC)c(OC)c2-c2ccc(OC)c(=O)cc21` (stereo unspecified): under setting [1], the T/C was 123 % of control and 153 % of control.
Take `CC1(CO)C(O)CCC2(C)C1CCC1CC3CC12CCC3(O)CO` (stereo unspecified): the T/C (dose: 240.0 mg/kg/injection, vehicle: Klucel (hydroxypropylcellulose) (HPC)) was 124 % of control and 161 % of control.
With `Cc1cccc(OCC(O)CN2CC2)c1` (stereo unspecified), the T/C (dose: 100.0 mg/kg/injection, vehicle: saline with Tween-80) is recorded as 111 % of control, 114 % of control, 153 % of control.
Consider `CN(C)CCNc1ccc(CO)c2sc3ccc(O)cc3c(=O)c12`, for which the T/C (dose: 200.0 mg/kg/injection, vehicle: saline with Tween-80) is 112 % of control and 170 % of control.
Regarding `CCN(CC)CCn1[nH]c2c3ccc(=O)cc3sc3c(NCCN)ccc1c32`, under “dose: 25.0 mg/kg/injection, vehicle: water”, the T/C is reported as 89 % of control, 173 % of control, 286 % of control.
Take `C=C1C(O)C2(O)OCC34C(CC5C(C)=CC(=O)C(O)C5(C)C23)OC(=O)C(OC(=O)C/C=C(\C)CCCCC)C14` (stereo unspecified): the T/C (dose: 8.0 mg/kg/injection, vehicle: saline + alcohol) is 122 % of control and 164 % of control.
For `Cc1cc2c(C(C)C)c(O)c(O)c(C=NCCO)c2c(O)c1-c1c(C)cc2c(C(C)C)c(O)c(O)c(C=NCCO)c2c1O`, the T/C (dose: 144.0 mg/kg/injection, vehicle: saline with Tween-80) is 121 % of control and 160 % of control.
As for `C=C1COC(O)(C2OCOC(C3CC(=O)NC(=O)C3)C2O)C1C` (stereo unspecified), the T/C (dose: 32.0 micrograms/kg/injection, vehicle: water) is listed as 114 % of control, 153 % of control, 170 % of control.
With `COc1cc(C2c3cc4c(cc3[C@@H](OC3OC5CO[C@@H](C)OC5C(O)C3O)[C@H]3COC(=O)C23)OCO4)cc(OC)c1OC` (stereo partly specified), the T/C (dose: 400.0 mg/kg/injection, vehicle: suspension in saline) is 116 % of control and 176 % of control.
Consider `CNC(=S)SC1=NS(=O)(=O)c2ccccc2N1`, for which, where the note is “dose: 288.0 mg/kg/injection, vehicle: Klucel (hydroxypropylcellulose) (HPC)”, the T/C was 109 % of control and 160 % of control.
`CC(C)NC(=O)OCc1c(COC(=O)NC(C)C)c(-c2ccc(Cl)c(Cl)c2)n2c1CCC2`: under “dose: 300.0 mg/kg/injection, vehicle: saline with Tween-80”, the T/C was 91 % of control and 196 % of control.
Regarding `COc1c(O)cc2c(c1OC)-c1ccc(SC)c(=O)cc1C(NC(C)=O)CC2` (stereo unspecified), the T/C by setting is: under setting [1], 120 % of control and 151 % of control; (dose: 2.5 mg/kg/injection, vehicle: Klucel (hydroxypropylcellulose) (HPC)) 118 % of control and 181 % of control.
In the case of `BrC[P+](CBr)(CBr)CBr`, under “dose: 31.25 mg/kg/injection, vehicle: saline with Tween-80”, the T/C was 120 % of control and 154 % of control.
